Over roughly 4,500 sequences, “median log2 fold change of GCK-ALFA target abundance (FLAG IP / Myc IP barcode read proportion)” has its median near 0.078; the lowest 2% begin near -0.6. This is one part of the list.
B1: GBRAP_137_3682 (protein)
chain: KTLKATIEEIDGYREVTITSDDESLAEELLDAVLDALDELGLKATVASLVKDGKAEIELFFPKDVTREQVLELLKKVADKLNVDLVIEDKVTGETIEYKA
B2: GBRAP_137_3624 (protein)
chain: ATVHIDLRHYEDVVEITVRLEDKEKAEEVAELILDVAHEHGALAVSIEFLPDGSLEAVIWVPRDRAEALLAALVRGLTEELGLTVVVRDLDTGAETTHEP
B3: GBRAP_11_2652 (protein)
chain: MKEVLKKAAKLAEEAAAAVDKLIAEGVDNEELRAKATKLINELEKLVKEHASPALKSDVQVAVDLWKEFLADPANAEQYAVELRAALDVLHGDFLLEIEE
B4: GBRAP_39_5629 (protein)
chain: EEEEELDLLESYAEAELEKLQVETGLPLEELYAELLARAREKVADDPELLAALEELDALAEEKGEEAREDLAAIMAALLAGEPLEDILKLMKAKIAEYKA
B5: GBRAP_52_6050 (protein)
chain: MRERIRAIVEEILAAVKAGKLEEARKLLREVFETLSEEELELFVEEFAELAAKAKPEDFDAVATAVELAEEEAEEAGRPEAFADDLAARVYAALYKAEQA
B6: GBRAP_125_3107 (protein)
chain: EEEELLEDLRLLAKALGFDDEEAEEAARLAREFSVRQTLYAILKAEGEDELADLVEQLTEEQARAALREVAAWLREHPDATREEVVAHLRAVIEALLAAA
B7: GBRAP_125_2978 (protein)
chain: ATPEELEDLRLVALALGLDEEDAAELVRLAAAHSVRGALYALAKALGYEELAAAVEKLTEAEARAVLREVAAWLRAHPDATPEEAAARLLAVAKAALAAA
B8: GBRAP_166_4961 (protein)
chain: AVAEKLAEVEALLERFEREGPSLSPEERREMVVEIAEAIGELRKAGAPEETILELATRLILLAVRAGLPPSFVEAALINIAGLPIDLVDEALERARKELA
B9: GBRAP_184_5081 (protein)
chain: KVYEAEIVAETEEELLAKVDEVLAAAAAQKADLVVLVEAKGLDTELAVKIIEKLGAAKAAGKVPKVTLGFAEEFTEEEVDKIVAAADAAGVNVVLPLKEE
B10: GBRAP_11_2924 (protein)
chain: EKEVLKKIAELAEELAKVLKELIEKGVDDEELWKKAEELLKELTELVKKHADEAEKKLAEIAEELWKEAKEDKENQEKYLKEALAAVAVLAGQFLLKLEE
B11: GBRAP_160_4783 (protein)
chain: SARVARVTAEFAAALAEAAELAEGETAENRANIVDVETGSAILDLIEEGLLNDEEEEVAAAVRDELVAAILANPDLTPEELRALLAAAAARLEAELKALE
B12: GBRAP_11_2741 (protein)
chain: KEEELKEIKKLAEELAELLKELIEEGVDNEELRKKAEEKLKELKEKVKKYGDKDLEKIVEYIEEEWKKALEDPETALEHYQRALGAARVLAGQVELLIEE
B13: GBRAP_11_2785 (protein)
chain: SKELLEKIKKVAEKLAETLKKLLEEGVDDEKLIEEAEKLLEELKKLAKEHPDKNLQKLAEIAEELWKEFLKDKENQEEYLKQLLAAVQVLEGQVLLLLEE
B14: GBRAP_52_5901 (protein)
chain: GEERARKLAEEIVAAIEAGDLEKAVELLVEALLNFSDEEIAILADELRRLLKGKTLEEAEKAAEAAEKAGEIAEKLGADEEKVTLLEDAVETALVEVELA
B15: GBRAP_128_3398 (protein)
chain: SQEELLKKAKELIDKIVEADEEEARKYAEELMELLKKMDLETREEVAKYLEEKLPKLTAEKLEVIADVFRENRPKDDPELANIVADMQVEALNEAVEKEE
B16: GBRAP_160_4417 (protein)
chain: MEVVEEVRELLRETRELVLELVEEGEREQALAAARVGAGEILLYLDEEPRVSEEAEEEVDEVLDELVERLEENRDASPEEVRELLEEAEREVLEILEKHT
B17: GBRAP_184_5190 (protein)
chain: KVLEYEIKAENLEELKKKMEELKKLAKEKKADLYIIVDLPKVTKEMIEALMEALKEIKEKGYSKNIVVELIGEMTEEEIDLALELADEAGVRVTLALDEE
B18: GBRAP_139_3708 (protein)
chain: SALEEKVAEAKELTKETLENPEESIKKIVELLLSVSEEDLEVVVKAIAETLSEFPLDTAEELADKLLEEVKKRSKDEDKVNIVEAVLNGALARKAYEEEL
B19: GBRAP_80_6805 (protein)
chain: AEAELEAALAEIAALDPELAERVREIIEMARAMGVPLETLAEYARAVAALLKVDKEKAAELVEELEELLEEEKAEGNTANAEATLRVFAGQALLEVEELE

biological target: GABARAP, O95166; assay: median log2 fold change of GCK-ALFA target abundance (FLAG IP / Myc IP barcode read proportion) (log2 ratio); each designed protein is fused to an ALFA-tag nanobody in HEK293 cells to bring the named protein to FLAG-tagged glucokinase (GCK); Myc marks an untargeted standard; higher = target protein stabilised (more abundant); conditions: target protein: 3xFLAG-MCP-GCK-ALFA reporter; HEK293 landing pad (RPLP)
Method in brief: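 The readout is target abundance, the per-binder median log2 ratio of FLAG to Myc barcode read proportions. It came from HEK293 landing-pad cells carrying a recombined ALFA-nanobody-fused binder library, induced with 2 μg mL^−1 doxycycline and transfected with a plasmid for a FLAG-tagged target and a Myc-tagged standard. After 48 h, lysates were immunoprecipitated with anti-FLAG and anti-Myc, and circular RNA barcodes were reverse transcribed, amplified and sequenced. Each barcode needed a proportion of at least 10^−7 in both replicates and each binder at least 3 barcodes per replicate, a pseudocount of 10^−6 was added, and the replicates were pooled.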

Sequence of GABARAP, O95166 (O95166 whole entry, the tested form may be a part): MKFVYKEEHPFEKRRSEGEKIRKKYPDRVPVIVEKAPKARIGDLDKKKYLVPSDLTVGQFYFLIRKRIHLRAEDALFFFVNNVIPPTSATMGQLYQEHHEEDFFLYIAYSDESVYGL

Binder	median log2 fold change
B1	-0.149
B2	0.0875
B3	0.279
B4	0.133
B5	0.111
B6	-0.067
B7	-0.0819
B8	0.165
B9	-0.0537
B10	0.214
B11	-0.255
B12	0.344
B13	0.128
B14	0.0446
B15	-0.0256
B16	-0.356
B17	0.115
B18	0.163
B19	-0.0862

— the supplement of paper PMC12632987
